We go through two molecules from patent US20130085101A1 (CASE WESTERN RESERVE UNIVERSITY, published 2013).

In assay [1] the target is T1, Human Insulin Receptor Isoform A (human).
T1 construct: Isoform A is the short isoform of; also called HIRA
Put plainly: receptor-binding assay on HIRA (details not given for this isoform).

Assay [2] has as its target T2, human Type 1 IGF receptor (human).
T2 construct: mature; also called IGF-1R; Insulin-like Growth Factor Receptor
In words: competitive displacement receptor-binding assay on IGF-1R.

Assay [3] deals with T2, human Type 1 IGF receptor. Put plainly: competitive displacement of 125I-Tyr31-IGF-I; FLAG-tagged IGF-1R captured on anti-FLAG plate. Background: In a radioligand displacement assay an active substance lowers the binding of a labelled ligand.
In assay [4] the target is T2, human Type 1 IGF receptor. Put plainly: competitive displacement of 125I-Tyr31-IGF-I; FLAG-tagged IGF-1R captured on anti-FLAG plate; zinc-free.

B1: HisA4, A8 KP-ins (ligand)
chain 1: not shown
chain 2: not shown
notes: also called [His^A4, His^A8]-KP insulin; A4A8-lispro
B1: the equilibrium dissociation constant (Kd) (commonly the constant that tells how readily two partners part at equilibrium) in assay [1] is 0.016 nM; in assay [2], 65.3 nM.

B2: insulin glargine ([Gly^A21, Arg^B31, Arg^B32]-insulin) (ligand)
chain 1: not shown
chain 2: not shown
notes: Assayed as zinc-free monomer; also called Lantus
On to B2, for which the relative affinity in assay [3] is 0.92 percent (of IGF-I for IGF-1R). Moreover, the dissociation constant (Kd) in assay [4] was determined as 3.1 nM.
